Assay results reported in paper PMC9911399, “Two distinct binding modes provide the RNA-binding protein RbFox with extraordinary sequence specificity”.
Changes are numbered by the printed parent chain; changes in the protein carry UniProt numbers. The list shows a part of the results.

T1: RBFOX1 RRM (Homo sapiens, UniProt Q9NWB1 109-208)
T1 sequence: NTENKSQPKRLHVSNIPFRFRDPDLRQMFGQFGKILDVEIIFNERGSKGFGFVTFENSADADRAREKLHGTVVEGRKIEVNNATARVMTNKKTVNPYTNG

B1: GAUAAAU (DNA:RNA)
RNA: GGGAGACCGGAAUUCAGAUUGUCCGAUAAAUUUAAAUCCCGUCGUAGCCACCA
DNA 1: CAATCTGAATTCCGGTCTCCC
DNA 2: TGGTGGCTACGACGGGATT
B2: UAAUUCA (DNA:RNA)
RNA: B1 RNA with G25U, U27A, A28U, A29U, A30C, U31A
DNA 1: CAATCTGAATTCCGGTCTCCC
DNA 2: TGGTGGCTACGACGGGATT
B3: UUGUACU (DNA:RNA)
RNA: B1 RNA with G25U, A26U, U27G, A28U, A30C
DNA 1: CAATCTGAATTCCGGTCTCCC
DNA 2: TGGTGGCTACGACGGGATT
B4: GUUCCGA (DNA:RNA)
RNA: B1 RNA with A26U, A28C, A29C, A30G, U31A
DNA 1: CAATCTGAATTCCGGTCTCCC
DNA 2: TGGTGGCTACGACGGGATT
B5: UAUCCGC (DNA:RNA)
RNA: B1 RNA with G25U, A28C, A29C, A30G, U31C
DNA 1: CAATCTGAATTCCGGTCTCCC
DNA 2: TGGTGGCTACGACGGGATT
B6: UUGACGA (DNA:RNA)
RNA: B1 RNA with G25U, A26U, U27G, A29C, A30G, U31A
DNA 1: CAATCTGAATTCCGGTCTCCC
DNA 2: TGGTGGCTACGACGGGATT
B7: CGCAGUU (DNA:RNA)
RNA: B1 RNA with G25C, A26G, U27C, A29G, A30U
DNA 1: CAATCTGAATTCCGGTCTCCC
DNA 2: TGGTGGCTACGACGGGATT
B8: GGGCCUU (DNA:RNA)
RNA: B1 RNA with A26G, U27G, A28C, A29C, A30U
DNA 1: CAATCTGAATTCCGGTCTCCC
DNA 2: TGGTGGCTACGACGGGATT
B9: UCAUUAA (DNA:RNA)
RNA: B1 RNA with G25U, A26C, U27A, A28U, A29U, U31A
DNA 1: CAATCTGAATTCCGGTCTCCC
DNA 2: TGGTGGCTACGACGGGATT

molecular target: T1, RBFOX1 RRM; experiment: EMSA; HiTS-Eq, 1 nM pool, 10 min; buffer printed only for the single-RNA assays: 10 mM Tris pH 7.5, 150 mM NaCl, 3.4 mM EDTA, 0.001% NP-40, 30 C; conditions: tags: His6 N-terminal (pET28a); label: 5' 32P
Method in brief: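 These values rest on relative association constants, computed from read-count changes of each RNA species versus the control reaction and normalised to the cognate motif. Reads came from free RNA recovered by 8% native PAGE after purified RbFox RRM (wild type or mutant) at increasing concentrations was equilibrated for 10 min in 50 µL with 1 nM of a 5′-radiolabelled pool with 7 randomized nucleotides and DNA-annealed flanks.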

Q: How did the binding signal turn out when B1 was run?
A: The binding signal was 0.00632 KA relative to UGCAUGU.

Q: How did the binding signal turn out when B2 was run?
A: The binding signal was 0.00413 KA relative to UGCAUGU.

Q: How did the binding signal turn out when B3 was run?
A: The binding signal was 0.00971 KA relative to UGCAUGU.

Q: How did the binding signal turn out when B4 was run?
A: The binding signal was 0.0204 KA relative to UGCAUGU.

Q: B5 was tested. Which binding signal did it give?
A: The binding signal was 0.00588 KA relative to UGCAUGU.

Q: B6 was tested. Which binding signal did it give?
A: The binding signal was 0.0118 KA relative to UGCAUGU.

Q: With B7 as the binder, how does the binding signal read?
A: The binding signal was 0.00892 KA relative to UGCAUGU.

Q: For B8, which binding signal is on record?
A: The binding signal was 0.0213 KA relative to UGCAUGU.

Q: How did the binding signal turn out when B9 was run?
A: The binding signal was 0.000346 KA relative to UGCAUGU.
